In brackets after ≈: the same amount, converted by molar mass.
System: Dengue virus (DV) type 2, New Guinea strain
Experiment: CPE assay against dengue virus

SMILES | EC50 (Dengue virus, MA104) [µg/mL] | EC50 (DV, CPE assay, MA-104 cells) [µg/mL]
Nc1nc(=O)n2ccn([C@@H]3O[C@H](CO)[C@@H](O)[C@H]3O)c2n1 [ZX-2401, 2-amino-8-(β-D-ribofuranosyl) imidazo [1,2-a]-s-triazine-4-one] | 10 (≈ 35.3 µM) | –
NC(=O)c1ncn([C@@H]2O[C@H](CO)[C@@H](O)[C@H]2O)n1 [Ribavirin, reference compound] | > 80 | >80

Source: patent US20060035848A1, “Broad-spectrum inhibitor of viruses in the Flaviviridae family” (ZymeTx, Inc., priority 2004, published 2006)
